Results from the RNAGym collection of RNA variant scans (doi:10.7554/elife.90254).
The source gives no read counts; variants with many changes may rest on few reads.

B1: LINE1-mini (parent)
chain: GGCAGAGCUCAACACAGCGUGGCAAAGUGGCUGUGGCUAGACUGCC

Variants of: B1
Assay: self-cleavage, relative activity (ratio to wild type); higher = more cleavage; in vitro, sequencing; the parent is a self-cleaving ribozyme

Row | Variant | self-cleavage
1 | GGCAGAGAUCAACACAGCGUGGCAGAGUCGCUGUGGCUAGACUGCC [C8A A25G G29C] | 0.04
2 | GGCCGAGCUCUACACAGCGUGCCAAAGUGGCUGUGGCUAGACAGCC [A4C A11U G22C U43A] | 0.01
3 | GGCAUAGCUCAACACAGCGUGGCAAAGUGGUUGAGGCUAGACCGCC [G5U C31U U34A U43C] | 0.02
4 | UGCAGAGCUCAACACAGCGUCGCAAAGUUGCUGUGGCUAGACUGCC [G1U G21C G29U] | 0.18
5 | GGCAGAGCUCAACACACCGUCGCAAAGUGGCUGUGGCUAGUCUGCC [G17C G21C A41U] | 0.31
6 | GGGAGAGCUCAACUCAGCGUGGCAAAGUGGCUGUGGCUAGACUGAG [C3G A14U C45A C46G] | 0.4
7 | GGCAGAGCUCAAGACAGCGUGGCAAAGUGGCUGUGGCUAGACAGUC [C13G U43A C45U] | 0.04
8 | GGGAGAGAUCAAGACAGCGUGGCAAAGGAGCUGUGGUUAGACUGCC [C3G C8A C13G U28G G29A C37U] | 1.57
9 | GGCAGAGCUCCAGACAUCAUGUCAAGGUGGCUGUGGCUAGACUGCC [A11C C13G G17U G19A G22U A26G] | 0.01
10 | GGCAGAGCUCAGCACAGCGCGGUAAAGUGGCUGUGGCUAAACUGCC [A12G U20C C23U G40A] | 0.02
11 | GGGAGAGCUCACCACAGUGUGGAAAAGUGGCUGUGGCUAGACUGCC [C3G A12C C18U C23A] | 0.02
12 | GACAGAGCUCAACAAAGCGUGGCAAAGUGGCAGUGGCUAGACUGCC [G2A C15A U32A] | 0.18
13 | GGCAGAGCUCAACACAUCGUGGCAAAGUGGCUGUCGCUAGACUCCC [G17U G35C G44C] | 0.01
14 | GGCAGAGCUCAACACCGCGUGGCAAAGUGGCUGUCGCUAGAAUGCC [A16C G35C C42A] | 0
15 | GGCAGAGGUCAUCACAGCGUGGCAAUGUGGCUGUGGCUAGACUGCC [C8G A12U A26U] | 0.15
16 | GGCGGAGGUCAACAUAGCGUGGCAAAGUGGCUGAGGUUAGACUGCC [A4G C8G C15U U34A C37U] | 0.04
17 | GGUAGAGCUCAACACAACGUGCCAAAGUGGGUGUGGCUACAUAGCC [C3U G17A G22C C31G G40C C42U U43A] | 0.01
18 | GGAAGAGCUCAACACAGCGUGGCAUAGUGGUUGUGGCUAGGCUGCC [C3A A25U C31U A41G] | 0.05
19 | GCCAGACCUCAACACAGCGUGGCAAAGUGGCUGUGGCUAGACUACC [G2C G7C G44A] | 0.54

Row | Variant | self-cleavage
20 | GGCAGAGCUUAAAACAGCGUGGCAGAGUGGCUGUGGCUAGGCUGCC [C10U C13A A25G A41G] | 0.02
21 | CGCAGAGCGCAACACCCUGUGGCAAAGUGACUGUGGCUAGACCGCC [G1C U9G A16C G17C C18U G30A U43C] | 0.02
22 | GGCAGAGCUAAAAACAUCGUGGCAAAGUGGCUGUGGCUAGACUGCA [C10A C13A G17U C46A] | 0.04
23 | GGCAGAGCUCAACACAGCGUGGCACUGUGGCUGUGGCUCUACUGAC [A25C A26U A39C G40U C45A] | 0
24 | GGCAGCGCUCAGCACACCGUGGCAAAGUGGCUGUGGCUAGACUGCC [A6C A12G G17C] | 0.02
25 | GGCAGAGCUCAACACAGCGCGGCAAAGUGGCUCUGACUAGACUGCC [U20C G33C G36A] | 0.02
26 | GGCAGAGCUCGACACAGCGUGGCAAACUGGCUCUGGUUCGACUGCC [A11G G27C G33C C37U A39C] | 0.01
27 | GGCAGAGCUCAACACAGCGUGGCAAAGUGGCGUUGGCAAGACUGCC [U32G G33U U38A] | 0.1
28 | GGCAGAGCUCAACACGGCGUGGCAAAGUGGCUGUGGCUAGGCUACC [A16G A41G G44A] | 0.01
29 | GGCAGAGCUCAACAGAGCAUGGCAAAGUGGCCGUGGCUAGACUGCC [C15G G19A U32C] | 0.05
30 | GGCAGAGCUCAACACAGCAUAGCAAAGCGGCUGUGGCUAGACUGCC [G19A G21A U28C] | 1.27
31 | GGCAGCGCUCAACACAGCGUGGCAAAGUGGCUGCGGUUAGACUGCC [A6C U34C C37U] | 0.08
32 | GGCAGAGCUCAACACAACGUGGCAAAGUGGCUGUGGCUAGUAUGCC [G17A A41U C42A] | 0.07
33 | GGCAGAGGUCAACACAGCGUGGCAAAGUGGCUGCGGCUAAACUCCC [C8G U34C G40A G44C] | 0.12
34 | GGCAGAGCUCACCACAUCGUGGCAUUGGGGCUGAGGCUAGACUGCC [A12C G17U A25U A26U U28G U34A] | 0.05
35 | GGCAGAGCUCAACACAUCGUGGCAAAGUGGCUGUAGCUAGACAGCC [G17U G35A U43A] | 0.02
36 | GGCAUAGCGCACGGCAGCGUCGCAAAGUGGCUGUGGCUAGACUGCC [G5U U9G A12C C13G A14G G21C] | 0.02
37 | GGCAGAGCUCAACACAGCGUUGCAAAGCGGCUGUGGCCAAACUGCC [G21U U28C U38C G40A] | 0.01
38 | GGCAGUGCUCAACACAGGUUGGCAAAGUGGCUGUGGCUAGUCUGCC [A6U C18G G19U A41U] | 0.06

Row | Variant | self-cleavage
39 | AGCAGAGCUCAACAGAGCGUGGCAAAGUGGGUGUGGCUAGACUGCC [G1A C15G C31G] | 0.02
40 | GGCAGAGCUCAACACAUCCAGGCAAAGUGGCUGUUGCUAGACUGGC [G17U G19C U20A G35U C45G] | 0.01
41 | GGCAGAGCUCAGCACGGCGUGGCAAAGUGGCUGUGACAAGACUGCC [A12G A16G G36A U38A] | 0
42 | GGCAGACCUCGACACAGCGUGGCAAACUGGCUGUGGCUAGACUGCC [G7C A11G G27C] | 0.01
43 | GGCAGACAUAAACACAGCGCGGUAAAGUGGCUGUGGCUAGACUGCC [G7C C8A C10A U20C C23U] | 0.02
44 | GGCAGAGCUCUGCACAGCGUGGCAAAGUGGCUGUGGCUAGACUGGC [A11U A12G C45G] | 0
45 | GGCAGAGCUGAACACAGCGUGCCAAAGUAGCUGGGGCUAGACUGGC [C10G G22C G29A U34G C45G] | 0
46 | GACAGAGCUCAACACAGCGUGGCAAAGUGGCUGUGGAUAGACUGCA [G2A C37A C46A] | 0.48
47 | AGCAGAGCUCAACACAGCGUCGCGAAGUGGCUGUGGCUAGACUGCC [G1A G21C A24G] | 0.97
48 | GGCAGAGUGCAACACAGCGUGGCAAAGUGGCUGUGCCUAGACUGCC [C8U U9G G36C] | 0.25
49 | GGCAGAUCUCAACACAGCGUGUCAAUGUGGCUGUGGCUAGACUGCC [G7U G22U A26U] | 0.2
50 | GGCAGAGCGCAACACAACCUGACACAGUGGCUGUGGCUAGACUGCC [U9G G17A G19C G22A A25C] | 0.05
51 | GGCACAGCUCAACACAGAGUGGCAAGCUGGCUGUGGCUAGACUGCC [G5C C18A A26G G27C] | 0.01
52 | GGCAGAGCUUAACACAGCGUGGCAAAGUGGCUGGAGCUAGACUGCC [C10U U34G G35A] | 0.04
53 | GGCAGAGCUCAACACGGCGUGUCAAAGUGGCUGUGGCUAGACUGUC [A16G G22U C45U] | 0.06
54 | GGCUGAGCUCAACACAGCGUGUCAAAGUGGCUAUGGCUAGACUGCC [A4U G22U G33A] | 0.1
55 | GGCAGAGCUCACCACUGCGUGGCAAAAUUGCUGUGGCUAGACUGCC [A12C A16U G27A G29U] | 0.04
56 | GGCAGAACACAACACAGCGUGGCAAACUGGCUGUGGCCACACUGCC [G7A U9A G27C U38C G40C] | 0.07
